The other results are listed elsewhere or left out.

This experiment concerns PfAP2-HC AP2 domain (GST-tagged). As to the kind of experiment: gcPBM binding intensity (ln(normalized median fluorescence intensity)); higher = stronger DNA binding. An outline of the steps:
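Binding intensity values are the highest Masliner-normalised natural-log median intensity among replicate spots of either probe orientation. The binding step lasted 1 h in 1× PBS with 1% milk, 0.2 mg/ml BSA, 0.5% salmon testes DNA and 0.03% Triton X-100, using GST-tagged P. falciparum DNA-binding domains expressed in E. coli on an Agilent 4 × 180k array of primer-extended double-stranded 36-bp intergenic genomic probes plus negative controls. Alexa488 anti-GST antibody and a 488 nm scan detected bound protein.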
As to “AATTAATATTTAAATTGTACATGAACATTTTAATGT [XGTACX_site462]”, the “gcPBM binding intensity (ln)” value came out at 9.5.

“TAAATATTATTTATATGTACTGATATATTAAATAAA [XGTACX_site3446]”: the “gcPBM binding intensity (ln)” value came to 9.38.

With “AAAATAAAATTTACTTGTACTAAAGGGATACGCGCA [XGTACX_site1453]”, the “gcPBM binding intensity (ln)” value was found to be 9.69.

“GTCACAAAATAAATTAAACACACAACATCATATATG [CACACA_site8182]”: the “gcPBM binding intensity (ln)” value is 10.3.

For “AATATAAATTTATATTGTACATATTTTATTATATGT [XGTACX_site905]”, the “gcPBM binding intensity (ln)” value came out at 9.67.

As for “AAATAAAATCATAATGTGCGCATATAAATTTGTAGG [GTGCAC_site9662]”, the “gcPBM binding intensity (ln)” value was 10.1.

Take “ATATATATATATGAAAGTACACATCTATTTTTTCTT [XGTACX_site6059]”: the “gcPBM binding intensity (ln)” value amounted to 9.64.

For the sequence “AAGGTAGATATATTTAGTACGTAATTTTTTTTTTTT [XGTACX_site7288]”, the “gcPBM binding intensity (ln)” value worked out at 9.64.

Turning to TAATATAATATATAGGTGCAATATTAACAAAAATTT, the “gcPBM binding intensity (ln)” value was found to be 9.61.

“ATTAATATGAATAAATGTACAAATGAATGATTACAT [XGTACX_site6044]”: the “gcPBM binding intensity (ln)” value was determined as 9.62.

Regarding “ATAATGTGTTAGGCGTGTACACAATTGTATGGTTTA [XGTACX_site2377]”, the “gcPBM binding intensity (ln)” value is 9.85.

With “GACATAAGATAATTACACATTGTTTCCTCAATAATA [CACACA_negctrl_site1616]”, the “gcPBM binding intensity (ln)” value came to 9.53.

Turning to “TTTCTTTAATATATAGTGCATGTAAATTTTACAATA [GTGCAC_site9679]”, the “gcPBM binding intensity (ln)” value turned out to be 9.34.

In the case of “TAAGTAAAAAATTAAAAAGATTACAGGGGGGGAAGG [XGTACX_negctrl_site491]”, the “gcPBM binding intensity (ln)” value worked out at 9.72.

With “ATTTTAACGAATATATGTACATAAAAAAAAAAAAGA [XGTACX_site8750]”, the “gcPBM binding intensity (ln)” value was found to be 9.77.

Regarding “AAAATAAGGACTGTTGTGCACTGGATTTGTGGTTAC [GTGCAC_site9830]”, the “gcPBM binding intensity (ln)” value is 9.89.

In the case of “AAAAAAAAAAACAGTTGTACATTTATTTATATATTA [XGTACX_site217]”, the “gcPBM binding intensity (ln)” value was determined as 9.61.

Consider “TATATACAAATATGTACACACATTACAGATGTACAT [CACACA_site6586]”, for which the “gcPBM binding intensity (ln)” value worked out at 10.

Take “TAGAAAAAATAAAATAGTACACATCCAAAAAAAAAA [XGTACX_site7829]”: the “gcPBM binding intensity (ln)” value was determined as 9.71.

Regarding “CCAAACAAAAAAAAAAGTACATAAAACACCTATTTG [XGTACX_site5645]”, the “gcPBM binding intensity (ln)” value stood at 9.66.

Turning to “AATATATAAATATATACACACAAAAACATATATATA [CACACA_site1318]”, the “gcPBM binding intensity (ln)” value was 9.99.

As to “ATAATTAGGGTGTATTTCATTTCATTTCATTTTATT [CACACA_negctrl_site1418]”, the “gcPBM binding intensity (ln)” value was determined as 9.88.

For the sequence “AACGTATTATTTATCTGTACAAAATAATAACGTATT [XGTACX_site813]”, the “gcPBM binding intensity (ln)” value worked out at 9.6.

In the case of “TTTTGTTTTTTCAATGTGCACTTAGGATGTTTTTAT [GTGCAC_site9565]”, the “gcPBM binding intensity (ln)” value is 9.9.

As for “ATCCAAATTAATAATAGTACTTTTAAGTCCTATGTA [XGTACX_site2452]”, the “gcPBM binding intensity (ln)” value came to 9.56.

On to “TAAATAAAAATACAGTGTACTTTTTTCTATTTAAAA [XGTACX_site3288]”, for which the “gcPBM binding intensity (ln)” value stood at 9.41.

For “CAAACAAATTGTGAAACACACATATATATATATATA [CACACA_site2001]”, the “gcPBM binding intensity (ln)” value was found to be 9.71.

Regarding “ATAATAAATGTCTTCAATGAAGTGGAAATGCTGTTA [TGCATGCA_negctrl_site238]”, the “gcPBM binding intensity (ln)” value came out at 9.55.

Consider “ATATATACATAGAATTGTACATAATTTATGTTCATT [XGTACX_site7426]”, for which the “gcPBM binding intensity (ln)” value turned out to be 9.45.

For the sequence “TTGGAGTTCATATGTGGTACACATTTAAATATATTT [XGTACX_site5582]”, the “gcPBM binding intensity (ln)” value came to 9.74.

As to “ATCATGGAAAAAACAAATGGGCTACATTACCTTTTG [GTGCAC_negctrl_site487]”, the “gcPBM binding intensity (ln)” value worked out at 9.63.

With “GATATAAACGTATATGTACATATATATATATATATA [GTGCAC_negctrl_site186]”, the “gcPBM binding intensity (ln)” value was found to be 10.5.

For “AAAAAAATAAATAAGACACACACAAAAAAAAAAAAA [CACACA_site8404]”, the “gcPBM binding intensity (ln)” value came out at 11.

For “TCTTGTTATAATAATCAATATATGGGTATACTTATG [CACACA_negctrl_site1618]”, the “gcPBM binding intensity (ln)” value is 9.59.

As to “AAAAGGATTTTTTATACACACACTAACTAATGTATA [CACACA_site2356]”, the “gcPBM binding intensity (ln)” value worked out at 9.88.

“AAATAATAAATATATCGTACAAATATCATATATAAA [XGTACX_site2771]”: the “gcPBM binding intensity (ln)” value came to 9.69.

In the case of “TTTTTTCTTTTTATAACACACAGGTGAAAAATAATA [CACACA_site1850]”, the “gcPBM binding intensity (ln)” value was 9.52.

On to “TCCTGTTGAGAATGGCGTACATATAAATATTATATA [XGTACX_site1841]”, for which the “gcPBM binding intensity (ln)” value was found to be 9.45.

In the case of “TTTCCTCATTTTATCATACACACTTGTTTATATGTG [CACACA_site8202]”, the “gcPBM binding intensity (ln)” value was determined as 9.87.

As for “TATTACTTTATATATACACACATATAACATAAATGC [CACACA_site3948]”, the “gcPBM binding intensity (ln)” value is 9.78.

Consider “CAGGTTCTTATATAGTGTACTATAGACATTCAATTG [XGTACX_site7239]”, for which the “gcPBM binding intensity (ln)” value is 9.64.

For the sequence “TAAATAATAATAAAATGTACATTATATATGTATATG [XGTACX_site8672]”, the “gcPBM binding intensity (ln)” value was 9.73.

As to “TTTTTTTTTTTTTTCTGTACTGATACTTATAGAGTT [XGTACX_site4736]”, the “gcPBM binding intensity (ln)” value is 9.49.

In the case of “ATATACTTACATATTACACACAATATTTTTAAATGG [CACACA_site5916]”, the “gcPBM binding intensity (ln)” value was determined as 9.76.

Take “CTTTTGCCCAAAAAGGTACACACCACAAAGTACATA [CACACA_site8169]”: the “gcPBM binding intensity (ln)” value turned out to be 9.61.

Turning to “TATTTATAATTAAATACACACATATATTATAGATTT [CACACA_site6435]”, the “gcPBM binding intensity (ln)” value amounted to 9.67.

Turning to “TTGTATATACTATACACACACATACATACATACATA [CACACA_site814]”, the “gcPBM binding intensity (ln)” value was 10.

On to “TTTTATTCATCATATTGTACATTCTTGTATTTATAG [XGTACX_site8534]”, for which the “gcPBM binding intensity (ln)” value amounted to 9.83.

On to “AATAAAAAATAAAAAAGTACATGATGAAAAGGTTTA [XGTACX_site7615]”, for which the “gcPBM binding intensity (ln)” value came out at 9.99.

For the sequence “TCCCTGATGTTATTTAATATACCATAAAAAAAAAAA [CACACA_negctrl_site1472]”, the “gcPBM binding intensity (ln)” value amounted to 9.23.

As to “CACACTTTATAATGTTGTACGATACATTATACCAAA [XGTACX_site941]”, the “gcPBM binding intensity (ln)” value amounted to 9.67.

Consider “TATATATATATATATACATGCATACAATTTTATGAG [TGCATGCA_site466]”, for which the “gcPBM binding intensity (ln)” value amounted to 9.61.

“ACCCATATTCTTTTTACACACTTGAATAAAAAATAT [CACACA_site4797]”: the “gcPBM binding intensity (ln)” value is 9.64.

As for “GAGATATAAAAGTGTACACATATTGTTATCCATATT [CACACA_site5441]”, the “gcPBM binding intensity (ln)” value was found to be 9.73.

On to “AAAGAAATAAAAAAAAGTACACAATTATAAATATAT [XGTACX_site3428]”, for which the “gcPBM binding intensity (ln)” value worked out at 9.69.

As to “GTATGTAATATTTTAGTGCAAAAAAAAAAAAAAAAA [GTGCAC_site9790]”, the “gcPBM binding intensity (ln)” value was 9.01.

The values are drawn from the supplement of paper PMC11417369.
